Experimental data: publication PMC12040169 (PLOS Biology, 2025)
This is one part of the list.

Each compound was assayed on T1, C. trachomatis L2/434/Bu expressing GFP (CTL2-GFP). Settings: total inclusion area; 28.5 h, 10 µM; inhibitor.
T1 construct: L2/434/Bu GFP intracellular growth in HeLa cells
Design: species or system HeLa; C. trachomatis total inclusion area by high-content imaging, normalised to DMSO
Summary of the method: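 Imaging read-out: GFP inclusions and Hoechst nuclei captured by high-content imaging after fixation. Inclusion area/number = chlamydial growth; nuclei count = host cell viability. MIC calculated per earlier method.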

| SMILES | % of control remaining |
| --- | --- |
| CN(C)c1cccc(-c2cc(N3CCN(c4ccccn4)CC3)ncn2)c1 [CBK037825] | 151.401 |
| O=S(=O)(c1ccc2ccccc2c1)c1cnns1 [CBK001887] | 34.9423 |
| CCCCOC(=O)c1ccc(NC(=O)c2c(Cl)cccc2Cl)cc1 [CBK263664] | 84.2136 |
| Cc1nc2cc(-c3nccn3C)nn2c(N2CCN(c3ccc4c(c3)OCCO4)CC2)c1C [CBK286186] | 95.5588 |
| CCCOc1c(Cl)cc(/C=C2\N=C(c3ccc(OC)cc3)OC2=O)cc1OCC [CBK098846] | 109.781 |
| CCN(CC)C(=O)c1cccc(NS(=O)(=O)c2cccc(C(=O)O)c2)c1 [CBK296943] | 96.306 |
| CCc1ccc(NC(=O)CN(CCO)Cc2cc(Br)ccc2F)cc1 [CBK305968] | 69.3567 |
| CC(C)(C)c1ccc(OCc2nnc(Sc3nc4ccc([N+](=O)[O-])cc4s3)n2-c2ccccc2)cc1 [CBK263366] | 102.61 |
| N#CC(/N=C/c1ccc(C#Cc2ccccc2)cc1)=C(C#N)/N=C/c1ccc(C#Cc2ccccc2)cc1 [CBK262066] | 100.568 |
| COc1ccc(OCCN2CCC3(CC2)CN(C(=O)CO)c2ccccc23)cc1 [CBK131512] | 84.8255 |
| Cn1c(O)c(CCNc2cc([C@H]3C[C@@H](N)C3)nc(C3CC3)n2)cnc1=O [CBK306819] | 84.7571 |
| Cc1ccc(OCc2occc2C(=O)NCCn2ccnc2C)cc1 [CBK306725] | 48.3679 |
| COc1ccc2ncc(C#N)c(Nc3ccc(OC)c(OC)c3)c2c1 [CBK287808] | 120.351 |
| NS(=O)(=O)c1ccc(Nc2nc3nonc3nc2Nc2ccc(S(N)(=O)=O)cc2)cc1 [CBK261110] | 91.4519 |
| CC(=O)c1ccc(-c2nc(NC(=O)c3cccc([N+](=O)[O-])c3)cnc2-c2ccc(F)c(Cl)c2)s1 [CBK036816] | 70.076 |
| COc1cccc(C(=O)NNC(=O)Nc2ccccc2)c1 [CBK261608] | 91.2327 |
| COc1ccc(CCN2CNc3c(c(=O)n(C)c(=O)n3C)C2)cc1OC [CBK074818] | 101.7 |
| CC1(C)CC(=O)Nc2ccccc2S1 [CBK025483] | 61.0813 |
| CCOC(=O)c1ccnc(-c2cc3ccccc3o2)c1 [CBK149253] | 80.7401 |
| O=C(CSc1n[nH]c(=O)n1C1CCCCC1)NCc1ccc(N2CCCC2=O)cc1 [CBK299785] | 72.963 |
| Cc1c(Br)c([N+](=O)[O-])nn1C(C)C(=O)NCc1ccco1 (centres unmarked) [CBK269108] | 79.7536 |
| CC(=O)c1ccc(NC(=O)N[C@H]2CCN3C(=O)[C@H]4CCCN4C(=O)[C@H]23)cc1 [CBK289228] | 131.385 |
| COc1ccccc1OCc1ccccc1 [CBK002814] | 69.8296 |
| CC(=O)Cc1nc2ccccc2nc1O [CBK089805] | 42.4923 |
| CC(C)n1c(=O)n(CC(=O)N2CCc3ccccc32)c2cccnc21 [CBK283855] | 79.4021 |
| COc1cccc(CN2CCN(C(=O)c3ccco3)CC2)c1OC [CBK074380] | 81.7049 |
| CCOC(=O)c1c(NC(=O)CC2Sc3ccccc3NC2=O)sc(C)c1C (centres unmarked) [CBK263349] | 101.595 |

| SMILES | % of control remaining |
| --- | --- |
| O=C(c1ccccc1F)N1C[C@H](c2ccsc2)[C@H]2CN(Cc3cccc(F)c3)CC[C@H]21 [CBK285660] | 84.5515 |
| Cc1ccccc1-c1nnc2n1CCCN2 [CBK200089] | 104.24 |
| Nc1nc2c([C@@H]3O[C@H](CO)[C@H](O)C3O)c[nH]c2c(=O)[nH]1 (some centres unmarked) [CBK201292] | 81.0407 |
| CC1CCN(Cc2ccc(-c3nnn(CC(=O)NCc4ccc(NS(C)(=O)=O)cc4)n3)cc2)CC1 [CBK144588C] | 86.0233 |
| COc1ccc(-c2ccc(C#N)c(SCc3ccncc3)n2)cc1 [CBK269883] | 73.1644 |
| C=C(C)Cn1c(SC(C)C)nnc1-c1ccccc1Cl [CBK200079] | 70.4131 |
| COc1ccc(CC(=O)Nc2nc(OC)cnc2/C=C\c2ccccc2)cc1 [CBK145224] | 110.762 |
| CCCN(CC1CC1)C1CCc2cccc(C(N)=O)c2C1 (centres unmarked) [CBK016579] | 69.4091 |
| CCCCN(C)c1nccnc1-c1ccncc1 [CBK037655] | 100.6 |
| CCOc1ccc(S(=O)(=O)N2CCN(CCCC#N)CC2)c2cccnc12 [CBK063046] | 80.5643 |
| O=[N+]([O-])c1cc(C(F)(F)F)ccc1NCCCNc1nc(N2CCOCC2)nc2ccccc12 [CBK266567] | 89.0497 |
| CCc1c(C)nc2ccccc2c1SCCOC(=O)Nc1ccccc1 [CBK155466T] | 95.1194 |
| COc1cc(CNCc2ccccn2)ccc1OCc1ccccc1C [CBK270108C] | 64.5694 |
| COc1ccc(-c2nc(-c3cc4ccccc4s3)cnc2N)cc1OC [CBK063963] | 63.9048 |
| Cc1cc(-c2sc(N)nc2-c2cccs2)on1 [CBK284492] | 120.603 |
| COc1ccc(/C=N/NC(=O)c2cc[nH]n2)cc1COc1ccc(Cl)cc1Cl [CBK263708] | 105.031 |
| Clc1ccc(CN2CCc3ccccc3C2)cc1Cl [CBK126395] | 79.6739 |
| CC(C)CCCC(=O)n1ccn(CCCOc2ccccc2)c1=O [CBK106561] | 82.6191 |
| O=C(O)CC(c1ccccc1)c1ccc2c(c1)OCO2 (centres unmarked) [CBK286983] | 100.554 |
| CCOC(=O)c1cn(CC2(CO)CCC2)cc(Oc2ccccc2)c1=O [CBK306698] | 72.0987 |
| CC(C)(CO)CCCn1cncc1-c1cnn(C2CCCCC2)c1 [CBK281779] | 93.7312 |
| CCC(=O)N(C)[C@H]1CC[C@]2(CC1)CNC(=O)c1ccccc1O2 [CBK281683] | 91.5825 |
| Cc1cc(NS(=O)(=O)c2cccc(Cl)c2C)on1 [CBK022499] | 101.505 |
| O=C(O)CCN1CCN(S(=O)(=O)c2ccc3ccccc3c2)CC1 [CBK269255] | 110.082 |
| CS(=O)(=O)c1ccc(-c2nccnc2N2CCN(c3ccncc3)CC2)cc1 [CBK036924] | 151.788 |
| COc1ccccc1N1CCN(C(=O)NCc2cnc(C)cn2)CC1 [CBK155367] | 86.4458 |
| O=S(=O)(N1CCCCCC1)n1ccnc1 [CBK269241] | 58.8929 |

| SMILES | % of control remaining |
| --- | --- |
| CN(c1ncc(Br)cc1C(=O)Nc1ccc(C(F)(F)F)cc1)S(C)(=O)=O [CBK076542] | 96.5891 |
| COc1cc(-c2cnc(N)c(N[C@H](CO)C(C)C)n2)cc(OC)c1OC [CBK063765] | 130.061 |
| CSc1nc(NC(=O)CCCc2ccccc2)cc(N2CCNCC2)n1 [CBK050258T] | 61.0869 |
| CCn1cc(NC(=O)C(CC)(CC)CN)ccc1=O [CBK304320C] | 76.5887 |
| NC(=O)c1ccc(-c2nccnc2NCc2ccc3c(c2)OCO3)cc1 [CBK036696] | 123.144 |
| O=C(CCN1CCc2ccccc2C1)Nc1cccc(F)c1 [CBK264282] | 85.5628 |
| Cn1cc(C(=O)N2CCOCC2c2nc(-c3cccs3)no2)cn1 (centres unmarked) [CBK305422] | 29.5298 |
| Cc1ccc2c(c1)C(NC(=O)N(C)C1CCS(=O)(=O)CC1)CC(C)(C)O2 (centres unmarked) [CBK307654] | 120.738 |
| O=S(=O)(NC1CCN(Cc2ccccc2)CC1)c1cccc2nonc12 [CBK062030] | 100.949 |
| Cc1ccc(C)c2c(C)c(C(=O)N3CCC(O)C(C)C3)[nH]c12 (centres unmarked) [CBK282527] | 130.748 |
| O=C(OCCC1SC(NC2CC3C=CC2C3)=NC1=O)c1ccc(Cl)c(Cl)c1 (centres unmarked) [CBK200056T] | 90.7539 |
| CN(C)c1ccc(C(=O)N2CCC(c3cc4cnccc4[nH]3)CC2)cc1 [CBK283446] | 98.0111 |
| Cc1ccc(OCc2occc2C(=O)N2CCc3[nH]cnc3C2)cc1 [CBK307717] | 47.6923 |
| COc1ccc(/C=C(\C)C(=O)Nc2cccc(N3CCNCC3)c2)cc1OC [CBK034115T] | 102.808 |
| CCCC/C(=N/N=C(\CCCC)c1ccncc1)c1ccncc1 [CBK016521] | 105.572 |
| O=S(=O)(Nc1nnc(C(F)(F)F)s1)c1ccc(F)cc1 [CBK026663] | 91.2903 |
| O=C(CSc1nc(-c2cccs2)cc(C(F)(F)F)n1)N1CCSCC1 [CBK307371] | 71.1725 |
| CC(C)C(=O)N1CCCc2cc(C(O)CN3CCCCC3)ccc21 (centres unmarked) [CBK282127] | 108.106 |
| O=C(CNC(=O)c1ccccc1C(=O)O)Nc1ccccc1 [CBK286690] | 59.9235 |
| Cc1cc(NS(=O)(=O)c2ccc(NC(=S)NCC3CCCO3)cc2)no1 (centres unmarked) [CBK268160] | 61.859 |
| O=C(O)C1CC=CCC1C(=O)Nc1ccc(S(=O)(=O)N2CCCc3ccccc32)cc1 (centres unmarked) [CBK268179] | 84.0152 |
| CN(C)S(=O)(=O)c1cc(C(=O)Nc2ccc(O)cc2)c(Cl)cc1Cl [CBK266767] | 73.6848 |
| O=C1CC[C@@H](NCc2ccncc2)[C@H](c2cc(F)cc(F)c2)N1 [CBK283131] | 101.416 |
| O=S1(=O)C=C(c2ccc(Cl)cc2)S(=O)(=O)CC1 [CBK018403] | 48.7445 |
| N#Cc1c(NC(=O)CCn2cnnn2)sc2c1CCC2 [CBK270041] | 66.9554 |
| CCOC(=O)CSc1nc2cc(Cl)c(Cl)cc2nc1NC(C)C [CBK107173] | 97.4065 |
